# Test results taken from the supplement of paper PMC8728848.
# Some of the results follow.
# B1: Nictaba (Nicotiana tabacum), Q94EW1 (protein)
# chain: MQGQWIAARDLSITWVDNPQYWTWKTVDPNIEVAELRRVAWLDIYGKIETKNLIRKTSYAVYLVFKLTDNPRELERATASLRFVNEVAEGAGIEGTTVFISKKKKLPGELGRFPHLRSDGWLEIKLGEFFNNLGEDGEVEMRLMEINDKTWKSGIIVKGFDIRPN
# Assays:
# Experiment in all cases: glycan array binding signal (z-score within array); higher = stronger binding
# Settings in all cases: glycan notation: IUPAC condensed, linker removed
# [1] = molecular target: Neu5Ac(a2-6)Gal(b1-4)GlcNAc(b1-2)Man(a1-3)[GlcNAc(b1-4)][Neu5Ac(a2-6)Gal(b1-4)GlcNAc(b1-2)Man(a1-6)]Man(b1-4)GlcNAc(b1-4)GlcNAc
# Method in brief: (§1)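 From the Consortium for Functional Glycomics database, 3228 arrays were curated, keeping only those whose protein sequence was available. Binding is given as a within-array Z-score averaged across arrays sharing a protein sequence and across linkers. Negative Z-scores can be read as non-binding.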
# [2] = molecular target: Neu5Ac(a2-6)Gal(b1-4)GlcNAc(b1-2)Man(a1-3)[Man(a1-6)]Man(b1-4)GlcNAc(b1-4)GlcNAc
# Method in brief: as §1
# [3] = molecular target: Neu5Ac(a2-6)Gal(b1-4)GlcNAc(b1-2)Man(a1-3)[Neu5Ac(a2-3)Gal(b1-4)GlcNAc(b1-2)Man(a1-6)]Man(b1-4)GlcNAc(b1-4)GlcNAc
# Method in brief: as §1
# [4] = molecular target: Neu5Ac(a2-6)Gal(b1-4)GlcNAc(b1-2)Man(a1-3)[Neu5Ac(a2-6)Gal(b1-4)GlcNAc(b1-2)Man(a1-6)]Man(b1-4)GlcNAc(b1-4)GlcNAc
# Method in brief: as §1
# [5] = molecular target: Neu5Ac(a2-6)Gal(b1-4)GlcNAc(b1-2)Man(a1-3)[Neu5Ac(a2-6)Gal(b1-4)GlcNAc(b1-2)Man(a1-6)]Man(b1-4)GlcNAc(b1-4)[Fuc(a1-6)]GlcNAc
# Method in brief: as §1
# [6] = molecular target: Neu5Ac(a2-6)Gal(b1-4)GlcNAc(b1-2)Man(a1-6)Man(b1-4)GlcNAc(b1-4)GlcNAc
# Method in brief: as §1
# [7] = molecular target: Neu5Ac(a2-6)Gal(b1-4)GlcNAc(b1-2)Man(a1-6)[Gal(b1-4)GlcNAc(b1-2)Man(a1-3)]Man(b1-4)GlcNAc(b1-4)GlcNAc
# Method in brief: as §1
# [8] = molecular target: Neu5Ac(a2-6)Gal(b1-4)GlcNAc(b1-2)Man(a1-6)[GlcNAc(b1-2)Man(a1-3)]Man(b1-4)GlcNAc(b1-4)GlcNAc
# Method in brief: as §1
# [9] = molecular target: Neu5Ac(a2-6)Gal(b1-4)GlcNAc(b1-2)Man(a1-6)[Man(a1-3)]Man(b1-4)GlcNAc(b1-4)GlcNAc
# Method in brief: as §1
# [10] = molecular target: Neu5Ac(a2-6)Gal(b1-4)GlcNAc(b1-2)[Neu5Ac(a2-6)Gal(b1-4)GlcNAc(b1-4)]Man(a1-3)[GlcNAc(b1-4)][Neu5Ac(a2-6)Gal(b1-4)GlcNAc(b1-2)[Neu5Ac(a2-6)Gal(b1-4)GlcNAc(b1-6)]Man(a1-6)]Man(b1-4)GlcNAc(b1-4)GlcNAc
# Method in brief: as §1
# [11] = molecular target: Neu5Ac(a2-6)Gal(b1-4)GlcNAc(b1-2)[Neu5Ac(a2-6)Gal(b1-4)GlcNAc(b1-4)]Man(a1-3)[GlcNAc(b1-4)][Neu5Ac(a2-6)Gal(b1-4)GlcNAc(b1-4)Man(a1-6)]Man(b1-4)GlcNAc(b1-4)GlcNAc
# Method in brief: as §1
# [12] = molecular target: Neu5Ac(a2-6)Gal(b1-4)GlcNAc(b1-2)[Neu5Ac(a2-6)Gal(b1-4)GlcNAc(b1-6)]Man(a1-6)[Neu5Ac(a2-6)Gal(b1-4)GlcNAc(b1-2)Man(a1-3)][GlcNAc(b1-4)]Man(b1-4)GlcNAc(b1-4)GlcNAc
# Method in brief: as §1
# [13] = molecular target: Neu5Ac(a2-6)Gal(b1-4)GlcNAc(b1-3)Gal(b1-3)GlcNAc
# Method in brief: as §1
# [14] = molecular target: Neu5Ac(a2-6)Gal(b1-4)GlcNAc(b1-3)Gal(b1-4)GlcNAc
# Method in brief: as §1
# [15] = molecular target: Neu5Ac(a2-6)Gal(b1-4)GlcNAc(b1-3)Gal(b1-4)GlcNAc(b1-2)Man(a1-3)[Neu5Ac(a2-6)Gal(b1-4)GlcNAc(b1-3)Gal(b1-4)GlcNAc(b1-2)Man(a1-6)]GalNAc
# Method in brief: as §1
# [16] = molecular target: Neu5Ac(a2-6)Gal(b1-4)GlcNAc(b1-3)Gal(b1-4)GlcNAc(b1-3)Gal(b1-4)GlcNAc
# Method in brief: as §1
# [17] = molecular target: Neu5Ac(a2-6)Gal(b1-4)GlcNAc(b1-3)Gal(b1-4)GlcNAc(b1-3)Gal(b1-4)GlcNAc(b1-2)Man(a1-3)[Neu5Ac(a2-6)Gal(b1-4)GlcNAc(b1-3)Gal(b1-4)GlcNAc(b1-3)Gal(b1-4)GlcNAc(b1-2)Man(a1-6)]GalNAc
# Method in brief: as §1
# [18] = molecular target: Neu5Ac(a2-6)Gal(b1-4)GlcNAc(b1-3)Gal(b1-4)GlcNAc(b1-3)GalNAc
# Method in brief: as §1
# [19] = molecular target: Neu5Ac(a2-6)Gal(b1-4)GlcNAc(b1-3)Gal(b1-4)GlcNAc(b1-3)[Neu5Ac(a2-6)Gal(b1-4)GlcNAc(b1-3)Gal(b1-4)GlcNAc(b1-6)]GalNAc
# Method in brief: as §1
# [20] = molecular target: Neu5Ac(a2-6)Gal(b1-4)GlcNAc(b1-3)Gal(b1-4)GlcNAc(b1-6)[Gal(b1-3)]GalNAc
# Method in brief: as §1
# [21] = molecular target: Neu5Ac(a2-6)Gal(b1-4)GlcNAc(b1-3)Gal(b1-4)[Fuc(a1-3)]GlcNAc(b1-3)Gal(b1-4)[Fuc(a1-3)]GlcNAc
# Method in brief: as §1
binder,measurement,setting,value
B1,glycan array binding signal (z-score),[1],-0.387
same,glycan array binding signal (z-score),[2],1.87
same,glycan array binding signal (z-score),[3],0.06
same,glycan array binding signal (z-score),[4],-0.115
same,glycan array binding signal (z-score),[5],-0.341
same,glycan array binding signal (z-score),[6],0.139
same,glycan array binding signal (z-score),[7],1.9
same,glycan array binding signal (z-score),[8],0.983
same,glycan array binding signal (z-score),[9],0.567
same,glycan array binding signal (z-score),[10],-0.376
same,glycan array binding signal (z-score),[11],-0.379
same,glycan array binding signal (z-score),[12],-0.386
same,glycan array binding signal (z-score),[13],-0.254
same,glycan array binding signal (z-score),[14],-0.222
same,glycan array binding signal (z-score),[15],1.27
same,glycan array binding signal (z-score),[16],-0.286
same,glycan array binding signal (z-score),[17],0.027
same,glycan array binding signal (z-score),[18],-0.386
same,glycan array binding signal (z-score),[19],-0.384
same,glycan array binding signal (z-score),[20],-0.383
same,glycan array binding signal (z-score),[21],-0.268
